The RNAGym collection of RNA variant scans (doi:10.1093/nar/gkz1192)
The source gives no read counts; variants with many changes may rest on few reads.

B1: CPEB3 Ribozyme (parent)
chain: UAACAGGGGGCCACAGCAGAAGCGUUCACGUCGCAGCCCCUGUCAGAUUCUGGUGAAUCUGCGAAUUCUGCUGUAUAUCUC

Variants of: B1
Assay: self-cleavage, relative activity (ratio to wild type); higher = more cleavage; in vitro, sequencing
Outline: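 For each CPEB3 ribozyme variant, relative activity is its cleaved/total read fraction divided by the unmutated ribozyme's. Barcoded error-prone PCR libraries were transcribed by T7 RNA polymerase (5 hours, 37°C) and held in DNase I for 15 min before an EDTA stop, with cleavage occurring throughout. Template-switching reverse transcription and Illumina sequencing were used to read the RNAs. A 5-read minimum applied, and results are the mean of three batches.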

Row | Variant | self-cleavage
1 | UAACAGGGGGCCACAGCAGAAGCGUUCACGUCGCAGCCCCAGUCAGACUCUGGUGAAACGGCGAAUUCUGCUGUAUAUCUC [U41A U48C U58A U60G] | 0.15
2 | UAACAGGGGGCCACAGCAGAAGCGUUCACGUCGCAGCCCCAGUCAGAUUCUGGUGAAUCUGCGAAUUCUGCAGUAUACCUC [U41A U72A U78C] | 0.14
3 | UAACAGGGGGCCACAGCAGAAGCGUUCACGUCGCAGCCCCAGUCAGAUUCCGGUGGGCCUGCGGAUUCUGCUUUAUAUCUC [U41A U51C A56G A57G U58C A64G G73U] | 0.04
4 | UAACAGGGGGCCACAGCAGAAGCGUUCACGUCGCAGCCCCAGUCAGAUUCUGGUGAACCUGCGAAUUCUGCUGUAUGUCUC [U41A U58C A77G] | 0.26
5 | UAACAGGGGGCCACAGCAGAAGCGUUCACGUCGCAGCCCCAGUCAGAUUCUGGUGAAUCUGCGAAUUCAGCCGUAUAUCUC [U41A U69A U72C] | 0.49
6 | UAACAGGGGGCCACAGCAGAAGCGUUCACGUCGCAGCCCCAGUCAGAUUCUGGUGAAUCCGCGAACUCUGCUGUAUAUCUC [U41A U60C U66C] | 0.44
7 | UAACAGGGGGCCACAGCAGAAGCGUUCACGUCGCAGCCCCAGUCAGAUUCUGGUGAAUCUGCGAAUUCAGCUGUAUUUCUC [U41A U69A A77U] | 0.16
8 | UAACAGGGGGCCACAGCAGAAGCGUUCACGUCGCAGCCCCAGUCAGAUUCCGGUGAGUCUGCGGAUUCUGCUGUAUAUCUC [U41A U51C A57G A64G] | 0.12
9 | UAACAGGGGGCCACAGCAGAAGCGUUCACGUCGCAGCCCCAGUCAGAUUCUGGUGAAACUGCGAAUUCCGCUGUAUAUCUC [U41A U58A U69C] | 0.12
10 | UAACAGGGGGCCACAGCAGAAGCGUUCACGUCGCAGCCCCAGUCAGAUUCUGGUGAAUCUGCGAAUUCUGCAGUAUAUCCC [U41A U72A U80C] | 0.29
11 | UAACAGGGGGCCACAGCAGAAGCGUUCACGUCGCAGCCCCAGUCAGACUCUGGCGAAUCUGCGAAUUCUGCUGUAUAUCUC [U41A U48C U54C] | 0.41
12 | UAACAGGGGGCCACAGCAGAAGCGUUCACGUCGCAGCCCCAGUCAGAUUCUGGUGAAUCGGCGUAUUCUGCUGUAUAUCUC [U41A U60G A64U] | 0.39
13 | UAACAGGGGGCCACAGCAGAAGCGUUCACGUCGCAGCCCCAGUCAGAUUCUGGUGAAUCCGUGAAUUCUGCUGUAUAUCUC [U41A U60C C62U] | 0.14
14 | UAACAGGGGGCCACAGCAGAAGCGUUCACGUCGCAGCCCCAGUCAGAUUCUGGUGAAUCGGCGAAUUCUGCCGUAUAUCAC [U41A U60G U72C U80A] | 0.35
15 | UAACAGGGGGCCACAGCAGAAGCGUUCACGUCGCAGCCCCAGUCAGAUUCUGGUGAAUCUGCGAAUACUGCUGCAUAUCUC [U41A U67A U74C] | 0.28
16 | UAACAGGGGGCCACAGCAGAAGCGUUCACGUCGCAGCCCCAGUCAGAUCCAGGUGAAGCAGCGAAUUCUGCUGUAUAUCUC [U41A U49C U51A U58G U60A] | 0.45
17 | UAACAGGGGGCCACAGCAGAAGCGUUCACGUCGCAGCCCCAGUCAGAUUCUGGGGAACCUGCGGAUUCUGCUGUAUACCAC [U41A U54G U58C A64G U78C U80A] | 0.64

Row | Variant | self-cleavage
18 | UAACAGGGGGCCACAGCAGAAGCGUUCACGUCGCAGCCCCAGUCAGAUACUGGCGAAUCUGCGAAUUCUGCUGUAUACCUC [U41A U49A U54C U78C] | 0.16
19 | UAACAGGGGGCCACAGCAGAAGCGUUCACGUCGCAGCCCCAGUCAGAUUCUGGUGAAUCUGCGAACUCGGCUGUAUACCUC [U41A U66C U69G U78C] | 0.13
20 | UAACAGGGGGCCACAGCAGAAGCGUUCACGUCGCAGCCCCAGUCAGAUUCUGGUGAAUCUGCGAAUGCUGCAGUAUAUCUC [U41A U67G U72A] | 0.08
21 | UAACAGGGGGCCACAGCAGAAGCGUUCACGUCGCAGCCCCAGUCAGAUUCCGGUGAGUCUGCGAAUUCUGCCGUAUAUCUC [U41A U51C A57G U72C] | 0.38
22 | UAACAGGGGGCCACAGCAGAAGCGUUCACGUCGCAGCCCCAGUCAGAUUCUGGUGAACCUGCGAAUUCUGCCGUAUAUCUC [U41A U58C U72C] | 0.21
23 | UAACAGGGGGCCACAGCAGAAGCGUUCACGUCGCAGCCCCAGUCAGAUUCAGGUGAAUCUGCGGAUUCUGCUGUAUAUCUC [U41A U51A A64G] | 0.24
24 | UAACAGGGGGCCACAGCAGAAGCGUUCACGUCGCAGCCCCAGUCAGAUUCAGGUGAAUCUGCGUAUUCUGCUGUAUAUCUC [U41A U51A A64U] | 0.13
25 | UAACAGGGGGCCACAGCAGAAGCGUUCACGUCGCAGCCCCAGUCAGAUUCUGGUGAAUCUGCGAAUUCCGCUAUAUAUCUC [U41A U69C G73A] | 0.26
26 | UAACAGGGGGCCACAGCAGAAGCGUUCACGUCGCAGCCCCAGUCAGAUCCUGGUGAAUCUGCGAGUUCUGCUGAAUAUCUC [U41A U49C A65G U74A] | 0.4
27 | UAACAGGGGGCCACAGCAGAAGCGUUCACGUCGCAGCCCCAGUCAGAUUCUGGUGAAUCUGCGAAAUCUACUGUAUAUCUC [U41A U66A G70A] | 0.14
28 | UAACAGGGGGCCACAGCAGAAGCGUUCACGUCGCAGCCCCAGUCAGAUUCUGGUGAAUCAGCGAAUUCUGCCGUAUAUCUC [U41A U60A U72C] | 0.07
29 | UAACAGGGGGCCACAGCAGAAGCGUUCACGUCGCAGCCCCAGUCAGAUUCAGGUGAAUCUGCGAAUUCUGCUGUUUAUCAC [U41A U51A A75U U80A] | 0.37
30 | UAACAGGGGGCCACAGCAGAAGCGUUCACGUCGCAGCCCCAGUCAGAUUCUGGUGAAUCUGCGAAUUCUGCCGUAUGUCUC [U41A U72C A77G] | 0.07
31 | UAACAGGGGGCCACAGCAGAAGCGUUCACGUCGCAGCCCCAGUCAGAUUCUGGUGAAUCCGCGAAUUCUGCCGUAUAUCUC [U41A U60C U72C] | 0.18
32 | UAACAGGGGGCCACAGCAGAAGCGUUCACGUCGCAGCCCCAGUCAGAUUCUGGUGAAUCUGCGAAUUCUGCCGUAUAACUC [U41A U72C U78A] | 0.44
33 | UAACAGGGGGCCACAGCAGAAGCGUUCACGUCGCAGCCCCAGUCAGAUUCUGGUGAAUCUGCGAAUUCAGCUGUAAAUCUC [U41A U69A U76A] | 0.19
34 | UAACAGGGGGCCACAGCAGAAGCGUUCACGUCGCAGCCCCAGUCAGAUGCUGGUGAAUCUGCGAAUUCUGCUGUAUAUUUC [U41A U49G C79U] | 0.19
